Measured values reported in US8741931B2, “Kinase inhibitors” (priority 2007, dated 2014).
Some results were stated once for a whole list of compounds, not compound by compound. Some compounds share one range, which may span the group rather than tell each member.

How the values were obtained:
Assay type in all cases: biochemical
PKC theta kinase = PKC theta kinase (Homo sapiens, UniProt Q04759); assay: PKC Theta I (coupled enzyme assay, absorbance at 340 nm); settings: 240 μM ATP, 18 nM PKC theta, absorbance read out
Protocol: (§1) An assay buffer solution was prepared which consisted of 100 mM HEPES (pH 7.5), 10 mM MgCl2, 25 mM NaCl, 0.1 mM EDTA and 0.01% Brij. […] To 60 μL of this enzyme buffer, in a 384 well plate, was added 2 μL of VRT stock solution in DMSO. The mixture was allowed to equilibrate for 10 mins at 30° C. […] Ki values were calculated from initial rate data by non-linear regression using the Prism software package (Prism 4.0a, Graphpad Software, San Diego, Calif.).

PKC delta kinase = PKC delta kinase (Homo sapiens, UniProt Q05655); assay: PKC Delta (coupled enzyme assay); settings: 150 μM ATP, 46 nM PKC delta
Protocol: as §1, with “To 16” for “To 60”, “added 1” for “added 2”

PKC alpha kinase = PKC alpha kinase (Homo sapiens, UniProt P17252); assay: PKC Alpha (coupled enzyme assay); settings: 130 μM ATP, 4.5 nM PKC alpha
Protocol: as §1, with “mM EDTA, 100 μM CaCl2” for “mM EDTA”, “To 16” for “To 60”, “added 1” for “added 2”

| SMILES | Ki (PKC theta kinase) [nM] | Ki (PKC delta kinase) [nM] | Ki (PKC alpha kinase) [nM] |
| --- | --- | --- | --- |
| Nc1ncccc1C(=O)c1nc(N2CCNC(c3cccc(Cl)c3)C2)ccc1C(F)(F)F (centres unmarked) [compound 497] | < 50 | < 50 | – |
| CC[C@](CN)(CNc1ccc(C(F)(F)F)c(C(=O)c2cccnc2N)n1)c1ccccc1 [compound 463] | < 50 | < 50 | – |
| CC(C)C[C@H]1CN(c2ccc(-c3ccccc3F)c(C(=O)c3cccnc3N)n2)CCN1 [compound 435] | < 50 | < 50 | – |
| C=C(F)c1ccc(N2CCNC(c3cccc(Cl)c3)C2)nc1C(=O)c1cccnc1N (centres unmarked) [compound 476] | < 50 | < 50 | – |
| CC(C)N1CCCN(c2cccc(C(=O)c3cc(Br)cnc3N)n2)CC1 [compound 112] | < 50 | < 50 | – |
| NCC(CNc1ccc(C(F)(F)F)c(C(=O)c2cccnc2N)n1)c1ccccc1 (centres unmarked) [compound 431] | < 50 | < 50 | – |
| CCC[C@H]1CN(c2ccc(C(F)(F)F)c(C(=O)c3cccnc3N)n2)C[C@H](c2ccccc2)N1 [compound 482] | < 50 | < 50 | 50 to 500 |
| CC#Cc1ccc(N2CCNC(c3ccccc3)C2)nc1C(=O)c1cccnc1N (centres unmarked) [compound 436] | < 50 | < 50 | 50 to 500 |
| C=C(F)c1ccc(N2CCNC(c3ccccc3)C2)nc1C(=O)c1cccnc1N (centres unmarked) [compound 457] | < 50 | < 50 | – |
| CCC(CN)(CNc1ccc(C(F)(F)F)c(C(=O)c2cccnc2N)n1)c1ccccc1 (centres unmarked) [compound 426] | < 50 | < 50 | 50 to 500 |
| CC#Cc1ccc(N2CCN[C@@H](c3ccccc3)C2)nc1C(=O)c1cccnc1N [compound 458] | < 50 | < 50 | 50 to 500 |
| C=C(F)c1ccc(N2CCNC(CC(C)(C)F)C2)nc1C(=O)c1cccnc1N (centres unmarked) [compound 503] | < 50 | < 50 | 50 to 500 |
| C=C(F)c1ccc(N2CCNC(C(F)(F)F)C2)nc1C(=O)c1cccnc1N (centres unmarked) [compound 504] | < 50 | < 50 | – |
| C=C(F)c1ccc(N2CC3CCC(C2)N3)nc1C(=O)c1cccnc1N [compound 502] | < 50 | < 50 | 50 to 500 |
| C=C(F)c1ccc(N2CCNC(c3ccc(F)cc3)C2)nc1C(=O)c1cccnc1N (centres unmarked) [compound 501] | < 50 | < 50 | 50 to 500 |
| Cc1ccc(-c2ccc(N3CCN[C@@H](CC(C)C)C3)nc2C(=O)c2cccnc2N)o1 [compound 468] | < 50 | < 50 | 50 to 500 |
| Nc1ncccc1C(=O)c1nc(N2CCNC(CC3CC3)C2)ccc1C(F)(F)F (centres unmarked) [compound 441] | < 50 | – | 50 to 500 |
| C=Cc1cnc(N)c(C(=O)c2cccc(N3CCCN(C(C)C)CC3)n2)c1 [compound 131] | – | < 50 | – |

| SMILES | Ki (PKC theta kinase) [nM] | Ki (PKC delta kinase) [nM] | Ki (PKC alpha kinase) [nM] |
| --- | --- | --- | --- |
| C=C(F)c1ccc(N2CCN[C@H](CC(C)(C)F)C2)nc1C(=O)c1cccnc1N [compound 507] | < 50 | < 50 | 50 to 500 |
| C=C(F)c1ccc(N2CCNCC2)nc1C(=O)c1cccnc1N [compound 454] | < 50 | < 50 | 50 to 500 |
| CC(C)C(O)C1CN(c2ccc(C(F)(F)F)c(C(=O)c3cccnc3N)n2)CCN1 (centres unmarked) [compound 461] | < 50 | – | 50 to 500 |
| C=C(F)c1ccc(N2CCN[C@@H](C)C2)nc1C(=O)c1cccnc1N [compound 485] | < 50 | < 50 | 50 to 500 |
| Cc1cnc(N)c(C(=O)c2nc(N3CCN[C@@H](CC(C)C)C3)ccc2C(F)(F)F)c1 [compound 499] | < 50 | – | 50 to 500 |
| CCC[C@@H]1CN(c2ccc(C(F)(F)F)c(C(=O)c3cccnc3N)n2)C[C@H](CC(C)C)N1 [compound 494] | < 50 | < 50 | – |
| CC(C)[C@H]1CN(c2ccc(C(F)(F)F)c(C(=O)c3cccnc3N)n2)C[C@H](c2ccccc2)N1 [compound 450] | < 50 | – | 50 to 500 |
| CC(C)C[C@H]1CN(c2ccc(C(F)(F)F)c(C(=O)c3cc(Cl)cnc3N)n2)CCN1 [compound 480] | < 50 | – | 50 to 500 |
| C=C(F)c1ccc(N2CCNC(CC(C)(C)O)C2)nc1C(=O)c1cccnc1N (centres unmarked) [compound 492] | < 50 | < 50 | 50 to 500 |
| CC(C)C[C@H]1CN(c2ccc(C(F)(F)F)c(C(=O)c3cccnc3N)n2)C[C@@H](C)N1 [compound 490] | < 50 | < 50 | – |
| C=C(F)c1ccc(N2CCN[C@@H](CC(C)C)C2)nc1C(=O)c1cccnc1N [compound 424] | < 50 | < 50 | – |
| COCC1CN(c2ccc(C(F)(F)F)c(C(=O)c3cccnc3N)n2)CCN1 (centres unmarked) [compound 455] | 50 to 500 | – | 50 to 500 |
| CC#Cc1ccc(NC[C@@H](N)c2ccccc2)nc1C(=O)c1cccnc1N [compound 439] | < 50 | < 50 | 50 to 500 |
| C=C(F)c1ccc(N2CCN[C@@H](c3ccccc3)C2)nc1C(=O)c1cccnc1N [compound 475] | < 50 | < 50 | – |
| C=C(F)c1ccc(N2CCN[C@H](c3ccccc3)C2)nc1C(=O)c1cccnc1N [compound 474] | < 50 | – | 50 to 500 |
| C=C(F)c1ccc(N2CCNC(c3cccnc3)C2)nc1C(=O)c1cccnc1N (centres unmarked) [compound 500] | < 50 | < 50 | 50 to 500 |
| CC[C@@H]1CN(c2ccc(C(F)(F)F)c(C(=O)c3cccnc3N)n2)C[C@H](CC(C)C)N1 [compound 488] | < 50 | < 50 | – |
